Some of the results follow. Rule as the data show it: active = 3.2 or more and inactive = the rest. The signal is at background level for most entries.
B1: FGFR2_Y656_K659N_YF (peptide)
chain: INNIDYFKNTT
B2: FGFR2_Y656_YF (peptide)
chain: INNIDYFKKTT
B3: FGFR2_Y657_K659N (peptide)
chain: NNIDYYKNTTN
B4: FGFR2_Y657_YF (peptide)
chain: NNIDFYKKTTN
B5: FGFR3_Y647 (peptide)
chain: VHNLDYYKKTT
B6: FGFR3_Y647_K650E (peptide)
chain: VHNLDYYKETT
B7: FGFR3_Y647_YF (peptide)
chain: VHNLDYFKKTT
B8: FGFR3_Y648_D646N_YF (peptide)
chain: HNLNFYKKTTN
B9: FGFR3_Y648_K650M (peptide)
chain: HNLDYYKMTTN
B10: FGFR3_Y648_K650Q (peptide)
chain: HNLDYYKQTTN
B11: FGFR3_Y648_K650Q_YF (peptide)
chain: HNLDFYKQTTN
B12: FGFR4_Y237_YF (peptide)
chain: SIRFNYLLDVL
B13: FGFR4_Y390_G388R (peptide)
chain: LLARLYRGQAL
B14: FGG_Y140_Y140H (peptide)
chain: YLQEIHNSNNQ
B15: FGG_Y300 (peptide)
chain: PEADKYRLTYA
B16: FGG_Y300_R301H (peptide)
chain: PEADKYHLTYA
B17: FGG_Y300_T303P_YF (peptide)
chain: PEADKYRLPFA
B18: FGG_Y300_YF (peptide)
chain: PEADKYRLTFA
B19: FGG_Y380 (peptide)
chain: YQGGTYSKAST
B20: FGG_Y380_S384C_YF (peptide)
chain: FQGGTYSKACT
B21: FGGY_Y136_L134V (peptide)
chain: HSVVQYVGGVM
B22: FH_Y110 (peptide)
chain: EVNQDYGLDPK
B23: FHL1_Y149_C153R (peptide)
chain: KGEDFYCVTRH
B24: FHL1_Y149_C153Y (peptide)
chain: KGEDFYCVTYH
B25: FHL1_Y149_H154P (peptide)
chain: KGEDFYCVTCP
B26: FHL1_Y207_C209R_YF (peptide)
chain: AVEDQYFRVDC
B27: FHL1_Y213 (peptide)
chain: YCVDCYKNFVA
B28: FHL1_Y213_C209R_YF (peptide)
chain: FRVDCYKNFVA
B29: FHL1_Y213_YF (peptide)
chain: FCVDCYKNFVA
B30: FLI1_Y332 (peptide)
chain: KPNMNYDKLSR
B31: FLI1_Y332_R337Q (peptide)
chain: KPNMNYDKLSQ
B32: FLNA_Y1761_A1764T (peptide)
chain: QLAPQYTYTQG
B33: FLNA_Y1761_A1764T_YF (peptide)
chain: QLAPQYTFTQG
B34: FLNA_Y1761_YF (peptide)
chain: QLAPQYTFAQG
B35: FLNA_Y1763_A1764T_YF (peptide)
chain: APQFTYTQGGQ
B36: FLNA_Y287_G288R (peptide)
chain: KKARAYRPGIE
B37: FLNA_Y319 (peptide)
chain: GEVLVYVEDPA

Molecular target: SHP2 C-SH2 domain E139D
Assay: enrichment score (SH2-bound / input frequency) (ratio); bacterial display of known human phosphotyrosine sites (pTyr-Var adds point mutants) read by sequencing; higher = stronger binding; tyrosines were phosphorylated by kinases first
Settings: peptide library: pTyr-Var
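Also: displayed peptides selected on beads carrying the immobilized SH2 domain, with library peptides lacking any tyrosine serving as negative controls.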

Enrichment score, inactive:
B1 1.1
B2 0.77
B3 0.945
B4 0.551
B5 0.729
B6 0.707
B7 0.66
B8 0.434
B9 0.838
B10 1.04
B11 0.747
B13 0.562
B14 1.1
B15 0.706
B16 0.623
B17 0.86
B18 1
B19 0.569
B20 0.58
B21 0.896
B22 0.53
B23 0.681
B24 0.67
B25 3.07
B26 1.04
B27 2.43
B28 1.03
B30 0.624
B31 0.651
B32 0.653
B33 0.899
B34 0.777
B35 0.81
B36 0.321
B37 0.627

Enrichment score, active:
B12 3.43
B29 3.44

Molecular target: SHP2 C-SH2 domain wild-type
Assay: as above
Settings: peptide library: pTyr-Var

Enrichment score, inactive:
B1 0.702
B2 0.64
B3 0.58
B4 0.503
B5 0.493
B6 0.618
B7 0.721
B8 0.6
B9 0.927
B10 0.842
B11 0.674
B12 3.11
B13 0.558
B14 0.993
B15 0.721
B16 0.601
B17 0.583
B18 0.803
B19 0.446
B20 0.723
B21 1.36
B22 0.673
B23 1.05
B24 1.07
B25 2.65
B26 0.98
B27 2.17
B28 1.14
B29 3.08
B30 0.683
B31 0.583
B32 0.731
B33 0.627
B34 0.863
B35 0.59
B36 0.247
B37 0.663

Molecular target: SHP2 N-SH2 domain L43F
Assay: as above
Settings: peptide library: pTyr-Var

Enrichment score, active:
B29 3.45

Enrichment score, inactive:
B1 0.94
B2 0.535
B3 0.805
B4 0.381
B5 0.368
B6 0.621
B7 0.655
B8 0.58
B9 0.951
B10 0.644
B11 0.577
B12 3.17
B13 0.556
B14 1.28
B15 0.675
B16 0.639
B17 0.456
B18 0.781
B19 0.514
B20 0.466
B21 1.04
B22 0.425
B23 0.987
B24 1.96
B25 2.99
B26 0.834
B27 2.15
B28 1.27
B30 0.867
B31 0.667
B32 0.632
B33 0.875
B34 0.734
B35 0.642
B36 0.309
B37 0.967

Molecular target: SHP2 N-SH2 domain T42A
Assay: as above
Settings: peptide library: pTyr-Var

Enrichment score, inactive:
B1 0.819
B2 0.49
B3 0.619
B4 0.369
B5 0.544
B6 0.595
B7 0.687
B8 0.315
B9 0.672
B10 0.618
B11 0.766
B12 2.56
B13 0.541
B14 0.981
B15 1.02
B16 0.349
B17 0.901
B18 0.606
B19 0.377
B20 0.499
B21 1.09
B22 0.613
B23 0.611
B24 0.794
B25 2.24
B26 0.667
B27 1.94
B28 0.94
B29 2.51
B30 0.566
B31 0.551
B32 0.873
B33 0.734
B34 0.51
B35 0.706
B36 0.252
B37 1.41

Molecular target: SHP2 N-SH2 domain T52S
Assay: as above
Settings: peptide library: pTyr-Var

Enrichment score, inactive:
B1 1.03
B2 0.607
B3 0.764
B4 0.484
B5 0.582
B6 0.671
B7 0.639
B8 0.383
B9 0.848
B10 0.697
B11 0.768
B12 3.02
B13 0.712
B14 0.775
B15 0.678
B16 0.543
B17 0.566
B18 0.759
B19 0.592
B20 0.534
B21 0.819
B22 0.467
B23 0.682
B24 1.5
B25 2.79
B26 0.757
B27 2.25
B28 1.05
B30 0.566
B31 0.581
B32 0.627
B33 0.586
B34 0.758
B35 0.648
B36 0.375
B37 1

Enrichment score, active:
B29 3.23

Molecular target: SHP2 N-SH2 domain wild-type
Assay: as above
Settings: peptide library: pTyr-Var

Enrichment score, inactive:
B1 0.836
B2 0.547
B3 0.829
B4 0.423
B5 0.713
B6 0.674
B7 0.623
B8 0.434
B9 0.709
B10 0.741
B11 0.856
B12 3.15
B13 0.456
B14 0.866
B15 0.767
B16 0.686
B17 0.835
B18 0.816
B19 0.627
B20 0.538
B21 1.1
B22 0.633
B23 0.985
B24 1.14
B25 2.52
B26 0.979
B27 2.15
B28 1.06
B29 2.61
B30 0.675
B31 0.694
B32 0.566
B33 0.64
B34 0.761
B35 0.625
B36 0.315
B37 1.08

From the supplement of paper PMC10369915
